Test results reported in PubChem BioAssay AID720709 (National Center for Advancing Translational Sciences (NCATS), 2013).
In all, about 360,000 compounds went through this assay and about 520 (0.14%) were called active. The inconclusive results got no clear call from the source; some entries with a clear call stand among them for comparison. Calls come from the whole dose curve; as a rule, active = well fitted inhibition curve with a large enough effect; inconclusive = small, poorly fitted or top-dose-only effect; inactive = no such curve, though single readings can be large or run the other way. No potency is given beside an inconclusive call; the fits are too rough.

What follows are compounds tested against Rap guanine nucleotide exchange factor 3 (Homo sapiens) (UniProt O95398) (assay: qHTS for Antagonist of cAMP-regulated guanine nucleotide exchange factor 3 (EPAC1): primary screen). Details: EPAC1 GEF assay, Rap1b-BODIPY-GDP exchange fluorescence; activity change, negative = inhibition: at 115 µM (top of the series).
UniProt O95398, sequence (O95398 whole entry, looked up): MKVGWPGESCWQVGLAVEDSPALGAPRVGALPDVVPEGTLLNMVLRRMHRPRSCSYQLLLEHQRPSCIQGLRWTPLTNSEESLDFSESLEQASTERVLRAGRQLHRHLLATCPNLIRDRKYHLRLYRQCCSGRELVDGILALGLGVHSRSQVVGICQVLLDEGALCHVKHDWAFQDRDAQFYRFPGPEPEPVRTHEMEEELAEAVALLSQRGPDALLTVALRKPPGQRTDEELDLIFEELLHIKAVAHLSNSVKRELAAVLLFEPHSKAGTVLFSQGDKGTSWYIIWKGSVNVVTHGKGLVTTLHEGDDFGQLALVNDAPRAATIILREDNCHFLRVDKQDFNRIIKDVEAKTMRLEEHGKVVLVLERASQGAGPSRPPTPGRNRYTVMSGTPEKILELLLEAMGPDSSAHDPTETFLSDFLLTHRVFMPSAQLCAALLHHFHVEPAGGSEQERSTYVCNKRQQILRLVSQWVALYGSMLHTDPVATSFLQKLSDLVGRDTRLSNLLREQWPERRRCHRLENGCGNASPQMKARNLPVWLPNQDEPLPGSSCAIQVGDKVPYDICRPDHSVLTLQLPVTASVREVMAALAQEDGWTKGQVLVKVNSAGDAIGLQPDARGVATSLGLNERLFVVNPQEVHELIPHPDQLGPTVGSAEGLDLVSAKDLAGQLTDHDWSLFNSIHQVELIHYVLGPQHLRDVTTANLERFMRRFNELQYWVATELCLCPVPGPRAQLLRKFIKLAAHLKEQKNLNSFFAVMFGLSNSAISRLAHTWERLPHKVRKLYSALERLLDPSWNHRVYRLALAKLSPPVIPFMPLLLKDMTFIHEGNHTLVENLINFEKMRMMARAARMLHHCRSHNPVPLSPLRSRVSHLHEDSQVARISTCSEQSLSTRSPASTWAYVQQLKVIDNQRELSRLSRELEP
Note: nearly all actives have a fitted effect of over 50% in size.
Potency is the fitted concentration of half-maximal effect; tags give direction and shape of the fitted curve.
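Throughout, for activity change, negative = inhibition: plate controls were vehicle for no effect and positive control for full effect.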

SMILES	Potency	activity change, negative = inhibition
CCO[C@@H]1OC(C(=O)NCc2nc3ccccc3[nH]2)=C[C@H](c2ccccc2)[C@H]1CCCO	inconclusive [inhibitor, partial curve]	
CCN1CCc2c(sc(NC(=O)Cc3ccccc3)c2C(N)=O)C1	inactive	
COc1cc(-c2nc3n(n2)C(c2ccc(F)cc2)C2=C(CCCC2=O)N3)cc(OC)c1OC (configuration not stated)	inconclusive [inhibitor, full curve, poor fit]	
CCNC(=S)Nc1ccc(N2CCCCC2)cc1	inactive	
CC(C)(C)OC(=O)NCCCCCC(=O)N/N=C/c1coc2ccccc2c1=O	inconclusive [inhibitor, single point]	
CCN1/C(=C/c2ccc3cc(C)ccc3[n+]2C)Sc2ccc3sccc3c21	inconclusive [inhibitor, single point]	
CN(C)Cc1nc2ccccc2c(=O)n1CC(=O)Nc1cccc(S(=O)(=O)N2CCOCC2)c1	inconclusive [inhibitor, partial curve]	
CCOC(=O)c1nc2c(ccc3ccccc32)cc1C	inconclusive [inhibitor, full curve, poor fit]	
Cc1ccn2c(NC(=O)C(C)(C)Oc3ccc(Cl)cc3)c(-c3cccs3)nc2c1	inconclusive [inhibitor, full curve, poor fit]	
CSCCC(NS(=O)(=O)c1ccc2c(c1)oc(=O)n2C)C(=O)NC1CCCCC1 (configuration not stated)	inconclusive [inhibitor, single point]	
O=C(Nc1ccc2ccccc2c1)/C(=C/c1cccc(Br)c1)NC(=O)c1ccco1	inconclusive [inhibitor, single point]	
CN(NC(=O)C1CC(=O)N(c2ccccc2)C1)C1=NS(=O)(=O)c2ccccc21 (configuration not stated)		inconclusive: -17.9% [inhibitor]
CCN(Cc1ccccc1)c1ccc(/C=N/NS(=O)(=O)c2ccc(C)c([N+](=O)[O-])c2)cc1	inconclusive [inhibitor, full curve]	
COC(=O)CC1=NN(c2ccc(OC)cc2)C(=O)/C1=C\c1ccc(Cl)cc1		inconclusive: -13.1% [inhibitor]
CC1CN(C(=O)c2cccc(S(=O)(=O)Nc3cc(Cl)ccc3Cl)c2)CC(C)O1 (configuration not stated)	inconclusive [inhibitor, partial curve, poor fit]	
CSCCC(NC(=O)c1ccccc1)C(=O)N1CCN(C(c2ccccc2)c2ccccc2)CC1 (configuration not stated)	inconclusive [inhibitor, full curve, poor fit]	
O=C(O)c1cc(-c2ccc3ccccc3n2)nc2ccccc12	inconclusive [inhibitor, single point]	
O=C(O)CCn1cc(C2CC(c3ccccc3)=NN2c2ccccc2)c(-c2ccccc2)n1 (configuration not stated)	inconclusive [inhibitor, single point]	
CC(=O)NCCn1c(C)cc2ccccc21	inconclusive [inhibitor, single point]	
COc1ccc(Cl)cc1NC(=O)c1[nH]c(C)c(C(C)=O)c1C	inconclusive [inhibitor, full curve, poor fit]	
CCC1CCCCN1C(=O)CSc1nnc(-c2ccc(Cl)cc2)o1 (configuration not stated)	inactive	
CN(C)c1ccc(NC(=O)c2cccc(C(=O)Nc3ccc(N(C)C)cc3)n2)cc1	inconclusive [inhibitor, full curve]	
CNc1nc(N/N=C/c2cc3c(cc2[N+](=O)[O-])OCO3)nc(Nc2ccccc2)n1	inactive	

SMILES	Potency	activity change, negative = inhibition
Cc1ccc(NC(=O)c2ccc3c(c2)NC(=O)CS3)nc1	inconclusive [inhibitor, full curve, poor fit]	
Cc1ccc(S(=O)(=O)NCc2ccc(C(=O)NCCCN3CCC(Cc4ccccc4)CC3)cc2)cc1	inactive	
Cc1ccc(C(=O)NC2CC(C)(C)NC(C)(C)C2)cc1S(=O)(=O)N1CCOCC1	inactive	
Cc1noc(C)c1C1(O)CCCCCCCCCCC1	inconclusive [inhibitor, partial curve]	
Oc1cccc(/C=N/N(Cc2ccccc2)c2ccccc2)c1	inactive	
CSc1ccccc1C(=O)Nc1ncn[nH]1	inactive	
O=C(N/N=C/c1cc(O)ccc1[N+](=O)[O-])c1ccc2c(c1)OCCO2	inconclusive [inhibitor, full curve, poor fit]	
c1ccc2c(c1)Nc1cc3ccccc3cc1S2	inactive	
COc1ccc(Nc2nc(-c3ccccc3O)nc3ccccc23)cc1	inconclusive [inhibitor, partial curve, poor fit]	
O=c1[nH]ncc(NCCCO)c1Cl	inconclusive [inhibitor, partial curve]	
O=C(OCc1nnc(-c2ccccc2)o1)c1ccc([N+](=O)[O-])s1	inconclusive [inhibitor, partial curve, poor fit]	
CSC1CCCCC1(O)CSc1nc2c(cc1C#N)CCCC2 (configuration not stated)	inactive	
COc1ccc(NC(=O)c2cc(C)no2)cc1	inactive	
O=C(COC(=O)c1ccc(O)cc1O)c1ccc(Cl)cc1	inactive	
O=C(OCCN1C(=O)c2ccccc2C1=O)c1cc(S(=O)(=O)N2CCOCC2)ccc1Cl	inconclusive [inhibitor, full curve]	
O=C(O)c1ccccc1N/N=C/c1cc(Br)cc(Br)c1O	inactive	
Cn1cccc1Cc1nnc(SCC(=O)Nc2ccc(Cl)cc2)n1-c1ccc(F)cc1	inconclusive [inhibitor, single point]	
COC1=C(Br)C(=O)c2nc(C)ccc2C1=O	inconclusive [inhibitor, partial curve]	
CCOc1ccc(NC(=O)CN(C)S(=O)(=O)c2ccc(-c3ccc(=O)[nH]n3)s2)cc1	inconclusive [inhibitor, partial curve]	
Cc1ccc(C(=O)Oc2ccc(Br)cc2C(=S)N2CCOCC2)cc1	inconclusive [inhibitor, partial curve]	
O=[N+]([O-])c1ccc2nonc2c1Nc1cccc(F)c1		inconclusive: -13.7% [inhibitor]
NS(=O)(=O)c1ccc(CCNC(=O)Cc2ccc(S(=O)(=O)N3CCCC3)s2)cc1	inconclusive [inhibitor, single point]	
Nc1ccc2c(O)cc(S(=O)(=O)O)cc2c1	inconclusive [inhibitor, partial curve]	

SMILES	Potency	activity change, negative = inhibition
COc1cccc(NC(=S)N2CCC(Cc3ccccc3)CC2)c1	inactive	
COc1ccc(-n2cc(CN3CCCC3)c(-c3cccc(F)c3)n2)cc1	inconclusive [inhibitor, full curve]	
NS(=O)(=O)c1ccc(NS(=O)(=O)c2ccc(NC(=O)c3ccc(-c4ccccc4)cc3)cc2)cc1	inconclusive [inhibitor, partial curve]	
COC(=O)COc1ccc(S(=O)(=O)NCc2ccncc2)cc1	inconclusive [inhibitor, single point]	
COc1ccc(C/C(C)=N/NC(=S)Nc2ccccc2)cc1	inactive	
Cc1ccc(S(=O)(=O)N(CC(=O)N2CCCCCC2)c2ccccc2F)cc1	inconclusive [inhibitor, partial curve, poor fit]	
Cc1ccc2c(c1)NC(=O)C(CC(=O)NCCCN1CCN(c3cc(C)ccc3C)CC1)O2 (configuration not stated)	inconclusive [inhibitor, single point]	
O=[N+]([O-])c1cc2c(cc1CN1CCN(c3ccccc3)CC1)OCO2	inconclusive [inhibitor, full curve, poor fit]	
Cc1oc2c(O)c(O)ccc2c(=O)c1-c1cnn(-c2ccccc2)c1	inconclusive [inhibitor, partial curve]	
O=S1(=O)CC(N2CCC(Cc3ccccc3)CC2)CN1C1CCCCC1 (configuration not stated)	inconclusive [inhibitor, partial curve]	
COc1cc(/C=N/NC(=O)c2ccccc2)ccc1O	inconclusive [inhibitor, full curve, poor fit]	
N#Cc1nc(-c2ccco2)oc1NCCCn1ccnc1	inconclusive [inhibitor, full curve, poor fit]	
N#Cc1ccc(CSc2nnc(NC(=O)c3ccc4ncsc4c3)s2)cc1	inconclusive [inhibitor, partial curve, poor fit]	
CCc1cc2c(=O)c(-c3nc4ccccc4n3C)coc2c(CN2CCCCC2C)c1O (configuration not stated)	inconclusive [inhibitor, single point]	
CCc1ccccc1N(C)S(=O)(=O)c1ccc2[nH]cc(C(=O)N3CCc4ccccc43)c(=O)c2c1	inconclusive [inhibitor, single point]	
CC1(C)CC(=O)C2=C(C1)N(c1cccc(O)c1)C1=C(C2)C(=O)CC(C)(C)C1	inactive	
O=C(COc1ccccc1/C=C1\SC(=O)NC1=O)Nc1ccccc1	inconclusive [inhibitor, full curve, poor fit]	
COc1cccc(C(C(=O)NC2CCCC2)N(C(=O)c2ccco2)c2ccccc2)c1OC (configuration not stated)		inconclusive: -17.4% [inhibitor]
Cc1ccc(/C=C2/NC(=O)N(Cc3ccccc3)C2=O)o1	inactive	
c1cncc(-c2nc(NCC3COc4ccccc4O3)c3ccccc3n2)c1 (configuration not stated)	inconclusive [inhibitor, partial curve]	
C=CCn1c(=O)c(CCC(=O)Nc2ccc(N3CCOCC3)cc2)nc2cc(C(F)(F)F)ccc21	inconclusive [inhibitor, partial curve]	
